Results as given in PMC3958368.
These are yes or no findings as the source states them, for the method shown. Some results given as binding are weak or reduced against the parent protein; the word gives no strength.

By UniProt entry, the sequences of proteins in these tests, tags left out.
UniProt P0A6R3: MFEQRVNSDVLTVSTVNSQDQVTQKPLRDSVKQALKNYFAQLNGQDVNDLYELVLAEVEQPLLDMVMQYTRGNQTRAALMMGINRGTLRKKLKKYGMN
UniProt P0A9E5: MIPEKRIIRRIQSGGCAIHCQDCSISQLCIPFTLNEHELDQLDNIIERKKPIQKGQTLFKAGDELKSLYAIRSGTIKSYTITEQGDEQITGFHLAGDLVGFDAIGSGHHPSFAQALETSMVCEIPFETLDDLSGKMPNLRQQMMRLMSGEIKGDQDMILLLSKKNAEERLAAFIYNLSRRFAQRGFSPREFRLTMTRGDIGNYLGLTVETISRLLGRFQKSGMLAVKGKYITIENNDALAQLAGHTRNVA
UniProt P00579: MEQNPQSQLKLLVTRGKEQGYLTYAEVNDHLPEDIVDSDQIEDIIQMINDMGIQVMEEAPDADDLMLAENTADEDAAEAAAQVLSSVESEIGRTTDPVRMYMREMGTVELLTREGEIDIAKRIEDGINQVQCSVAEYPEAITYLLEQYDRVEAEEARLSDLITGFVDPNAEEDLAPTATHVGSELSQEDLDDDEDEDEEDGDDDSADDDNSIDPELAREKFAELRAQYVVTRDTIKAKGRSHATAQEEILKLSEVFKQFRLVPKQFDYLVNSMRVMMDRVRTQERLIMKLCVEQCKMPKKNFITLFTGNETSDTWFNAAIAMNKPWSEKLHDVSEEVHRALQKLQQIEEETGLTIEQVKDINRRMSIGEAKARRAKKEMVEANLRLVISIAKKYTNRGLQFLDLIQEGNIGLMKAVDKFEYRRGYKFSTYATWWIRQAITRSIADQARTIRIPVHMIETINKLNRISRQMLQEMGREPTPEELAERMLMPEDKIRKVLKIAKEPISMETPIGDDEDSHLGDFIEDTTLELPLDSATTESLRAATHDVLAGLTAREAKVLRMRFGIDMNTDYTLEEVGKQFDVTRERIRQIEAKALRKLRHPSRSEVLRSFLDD
UniProt P0A7Z4: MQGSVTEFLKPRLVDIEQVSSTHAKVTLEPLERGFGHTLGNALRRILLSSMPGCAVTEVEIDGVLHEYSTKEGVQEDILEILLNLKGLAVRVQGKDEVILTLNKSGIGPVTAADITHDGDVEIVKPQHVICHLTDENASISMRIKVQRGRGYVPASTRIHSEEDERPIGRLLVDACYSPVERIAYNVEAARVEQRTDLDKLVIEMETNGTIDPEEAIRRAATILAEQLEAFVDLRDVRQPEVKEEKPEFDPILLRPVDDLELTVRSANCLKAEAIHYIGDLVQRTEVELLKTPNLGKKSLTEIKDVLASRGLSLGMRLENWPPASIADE

Tests used:
Experiment in all cases: PING (protein-protein interaction network generation; microfluidic mechanical trapping); bait and prey coexpressed by ITT in a chip chamber (2 hours at 30°C); bait immobilised under the button by biotinylated T7-epitope antibody; prey detected by Alexa-Fluor-647 penta-His antibody; PBS …; three trials, six replicates each; detected if p≤0.01 against baitless spots in at least one trial; no E. coli promoter DNA
[1] = biological target: fis, PING bait (E. coli) (UniProt P0A6R3)
[2] = biological target: T1, lrp, PING bait (E. coli) (UniProt P0ACJ0)
T1 sequence: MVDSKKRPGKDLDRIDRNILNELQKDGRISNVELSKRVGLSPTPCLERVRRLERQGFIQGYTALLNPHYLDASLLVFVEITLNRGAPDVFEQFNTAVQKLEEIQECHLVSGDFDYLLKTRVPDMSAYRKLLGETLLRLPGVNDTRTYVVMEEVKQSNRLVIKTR

[3] = biological target: T2, rhaS, PING bait (E. coli) (UniProt P09377)
T2 sequence: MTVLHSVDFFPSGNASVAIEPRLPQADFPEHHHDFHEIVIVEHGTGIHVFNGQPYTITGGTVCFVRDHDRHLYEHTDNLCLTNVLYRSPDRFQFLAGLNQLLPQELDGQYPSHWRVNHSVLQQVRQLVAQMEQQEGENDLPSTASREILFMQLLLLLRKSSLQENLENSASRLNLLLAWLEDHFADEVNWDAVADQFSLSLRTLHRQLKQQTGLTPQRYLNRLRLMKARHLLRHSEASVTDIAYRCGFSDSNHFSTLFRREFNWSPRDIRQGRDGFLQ

[4] = biological target: T3, rsd, PING bait (E. coli) (UniProt P0AFX4)
T3 sequence: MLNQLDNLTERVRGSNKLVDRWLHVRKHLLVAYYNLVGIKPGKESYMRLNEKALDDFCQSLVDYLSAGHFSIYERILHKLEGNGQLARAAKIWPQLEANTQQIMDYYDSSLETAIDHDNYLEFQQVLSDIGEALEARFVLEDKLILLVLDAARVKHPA

[5] = biological target: T4, arcA, PING bait (E. coli) (UniProt P0A9Q1)
T4 sequence: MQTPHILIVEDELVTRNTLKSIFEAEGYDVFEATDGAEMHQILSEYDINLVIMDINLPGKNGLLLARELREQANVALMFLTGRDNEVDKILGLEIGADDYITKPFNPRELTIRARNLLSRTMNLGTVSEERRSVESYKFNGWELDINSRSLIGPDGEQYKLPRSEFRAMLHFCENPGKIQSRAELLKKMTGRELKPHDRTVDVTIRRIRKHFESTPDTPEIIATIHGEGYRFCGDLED

[6] = biological target: fnr, PING bait (E. coli) (UniProt P0A9E5)
[7] = biological target: T5, marA, PING bait (E. coli) (UniProt P0ACH5)
T5 sequence: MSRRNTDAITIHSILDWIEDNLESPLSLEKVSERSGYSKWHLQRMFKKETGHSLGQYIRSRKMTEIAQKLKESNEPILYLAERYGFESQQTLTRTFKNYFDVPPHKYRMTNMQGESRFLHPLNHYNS

Substance	binding [1]	binding [2]	binding [3]	binding [4]	binding [5]	binding [6]	binding [7]
E. coli RNA polymerase major σ factor σ^70 (rpoD) (from UniProt P00579 1-613)	binds	binds	no binding	binds			
E. coli RNA polymerase α subunit (rpoA) (from UniProt P0A7Z4 1-329)	binds	binds		no binding	binds	no binding	binds
